In the supplement of paper PMC3334620:
The full ranking holds about 33,000 sequences; the median of “E-score (-0.5 to 0.5)” is about -0.036, and the highest 2% start at about 0.37. The list shows a part of the results.

target: T1, Yer064c (UniProt P40041); experiment: PBM E-score (8-mer binding enrichment) (E-score (-0.5 to 0.5)); higher = stronger / more preferred TF binding; most listed sequences are background and not binding sites; conditions: protein concentration: 200 nM; construct: GST-full length
T1 sequence: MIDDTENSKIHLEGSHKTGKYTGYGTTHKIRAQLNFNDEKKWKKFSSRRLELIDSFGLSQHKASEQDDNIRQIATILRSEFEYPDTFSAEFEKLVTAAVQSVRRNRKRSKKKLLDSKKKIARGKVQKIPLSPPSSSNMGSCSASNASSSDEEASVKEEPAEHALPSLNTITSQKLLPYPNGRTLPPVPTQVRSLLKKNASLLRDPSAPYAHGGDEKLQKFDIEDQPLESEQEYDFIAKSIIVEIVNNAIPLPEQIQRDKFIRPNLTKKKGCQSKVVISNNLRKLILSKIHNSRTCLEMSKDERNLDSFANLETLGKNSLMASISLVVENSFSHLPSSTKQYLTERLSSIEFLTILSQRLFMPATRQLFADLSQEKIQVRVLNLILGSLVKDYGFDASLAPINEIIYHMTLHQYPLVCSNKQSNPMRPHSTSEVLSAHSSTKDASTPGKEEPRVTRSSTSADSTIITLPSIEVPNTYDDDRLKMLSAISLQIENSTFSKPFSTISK
Summary of the method: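 Each ungapped eight-base word and its reverse complement, pooled, received an E-score from the Universal PBM Analysis Suite. Underlying scans, normalised with masliner, recorded fluorescent anti-GST bound to GST-tagged yeast transcription factors. These were applied at about 100-200 nM to universal all-10-mer Agilent arrays double-stranded by primer extension.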

| Sequence | PBM E-score |
| --- | --- |
| ACCAGTAT | -0.153 |
| AATATCGT | 0.0622 |
| GTAGACCA | -0.0117 |
| ATTGGATA | 0.107 |
| CGTTTCAA | -0.0471 |
| TGCTAACA | 0.00189 |
| ATCTTATG | 0.122 |
| ACCTGGCA | -0.145 |
| AAATTTCA | -0.0248 |
| ACTGGGTA | -0.04 |
| AGGGCAGG | -0.162 |
| CGGGAGGA | -0.0366 |
| GATGGCGA | -0.0113 |
| AGAATACA | 0.0199 |
| GAGACCAA | -0.0383 |
| CAATGACA | -0.0216 |
| CTACAGCA | -0.0176 |
| GATCTTCA | 0.021 |
| GCCTTTTA | -0.0751 |
| ACTAAAAA | 0.249 |
| AATTAAGA | 0.135 |
| CGTTCTAG | -0.0703 |
| CTAGACAG | -0.0516 |
| ACTCCCAA | 0.205 |
| CTCGAAAG | -0.00118 |

| Sequence | PBM E-score |
| --- | --- |
| ACTAGTAC | 0.196 |
| CGATCACA | 0.0941 |
| GAGACATA | 0.334 |
| GCATTCAA | -0.127 |
| CCCTAATA | -0.0692 |
| GCTGTTGA | 0.0881 |
| GTGTGCAA | 0.00092 |
| ACGATGAG | 0.219 |
| ATATTACG | 0.106 |
| CGGACGCA | -0.134 |
| CCACCCCA | -0.0763 |
| CATAAGTA | 0.142 |
| AATGGTAA | 0.0983 |
| CAAACTGA | 0.109 |
| CGACCGCG | -0.00452 |
| ACACACCT | 0.0951 |
| CGCCTGAG | -0.0417 |
| GAAATAAA | -0.0293 |
| GCACGGCC | -0.211 |
| ATGGGACA | -0.196 |
| ACTTACTC | 0.236 |
| CATTAGAA | 0.173 |
| ACATTAGC | -0.177 |
| ACTATGAT | 0.354 |
| CGCCCGTA | -0.257 |

| Sequence | PBM E-score |
| --- | --- |
| CGCCTCGC | -0.087 |
| AATGATCG | -0.166 |
| ATTTATAG | 0.0751 |
| ACCACGAG | -0.0782 |
| AGCTTGTC | -0.21 |
| AGACGGGG | -0.239 |
| TAATTATA | 0.172 |
| CTGAATAA | 0.165 |
| GGCGAAGA | -0.0567 |
| CCCCTACG | -0.0389 |
| CGCACTAC | -0.267 |
| CCAGCTTC | -0.0446 |
| ACCACTTG | -0.0296 |
| CAAGGATA | -0.104 |
| CACGGTAG | -0.0714 |
| GTCGTTAA | 0.151 |
| CATTATGA | 0.195 |
| CACTAGTG | 0.0783 |
| CCCAAAAC | 0.0481 |
| AGCCCCTC | -0.186 |
| GACGGATA | -0.179 |
| ATCGCTTA | -0.0645 |
| TGCACTAA | 0.106 |
| CGGGGGAG | -0.149 |
| AGCACATC | 0.0794 |

| Sequence | PBM E-score |
| --- | --- |
| AGATTCGG | -0.0237 |
| GAGTATGA | 0.27 |
| ACTATTGA | 0.291 |
| TCCGATAA | 0.192 |
| AGTGGATA | -0.123 |
| GATTTTAC | 0.129 |
| ACTTGAGC | 0.171 |
| ACATGAGT | 0.375 |
| CCTATATC | -0.169 |
| AATTCCTC | -0.172 |
| GTCGTGGA | 0.142 |
| CTCGAAGC | -0.046 |
| CGAAATAG | 0.0501 |
| ACCAGGAG | -0.209 |
| ACAAGACC | -0.213 |
| AAGTAGAA | -0.0919 |
| AGAGGTAC | -0.211 |
| TCTGCGCA | -0.129 |
| CTCATAAG | 0.231 |
| CGTCCGAC | 0.0463 |
| CATCCCCC | -0.301 |
| GGAACGAC | -0.00931 |
| GACGAAGC | -0.0864 |
| GCCGCGAA | -0.216 |
| CTAATAGA | 0.0502 |

| Sequence | PBM E-score |
| --- | --- |
| ATATAGTA | 0.128 |
| GATCTTGC | -0.194 |
| CGACCAGA | 0.00591 |
| ATCAGTTG | 0.157 |
| CTTCCATC | -0.0977 |
| GAGCGATC | -0.205 |
| TCGGCAAA | -0.171 |
| ATCGCACG | -0.0772 |
| GACATAGC | -0.0869 |
| AAGCGCGA | 0.0607 |
| ATCGGGGC | -0.221 |
| ACCAAGGA | 0.00799 |
| AATAGACT | 0.262 |
| ACTCTCCC | 0.129 |
| ATAACCCC | -0.111 |
| CCGTGTAC | -0.137 |
| CAGTACTA | 0.094 |
| CCGAACGG | -0.0813 |
| CTCCACAA | -0.009 |
| CTAAAGGA | 0.0288 |
| GGGTAGGA | 0.0126 |
| ATTTTTTG | 0.0826 |
| GCCCAAAA | -0.036 |
| AGTGGCAA | 0.0137 |
| ATAAGTCG | 0.223 |

| Sequence | PBM E-score |
| --- | --- |
| AACCCTCC | -0.341 |
| AGGAGACT | 0.331 |
| AACGTTGG | -0.0221 |
| CACGCTCA | 0.166 |
| ATGTGCGA | 0.0392 |
| CGTGCGCC | -0.229 |
| ATGGCGGA | -0.121 |
| ATTGGTCC | -0.109 |
| CACCAAGA | -0.059 |
| GCGGATAC | 0.11 |
| AGGACCGC | -0.218 |
| GAAATTTC | -0.5 |
| GAGTACTA | 0.337 |
| CGACTACA | 0.351 |
| AGCTATAG | -0.185 |
| AGCAAAGA | -0.0486 |
| GGGGGTAC | -0.0892 |
| AGTTGAAT | 0.109 |
| AAAGAGCT | -0.0281 |
| CAGCTCGC | -0.0272 |
| CTGAAAGC | -0.0517 |
| ATGGACTG | 0.0718 |
| TCCACCAA | 0.00825 |
| AATTTCTC | 0.0426 |
| CGACAACC | -0.131 |

| Sequence | PBM E-score |
| --- | --- |
| AACCAAGA | 0.0436 |
| AAGGGATA | -0.153 |
| GCAAGCGA | -0.0499 |
| GATTTATA | 0.215 |
| CTGGCTAC | 0.0972 |
| CGGGCTGC | -0.0918 |
| ATGTGTCA | 0.224 |
| CACATATG | 0.0245 |
| ACAATCCT | -0.167 |
| AACCCTGC | -0.0666 |
| CGTAGCTA | -0.0295 |
| ACCCGCCC | 0.00329 |
| AACTCTGG | -0.0715 |
| GTACCTAA | -0.00197 |
| AATAATCC | 0.0648 |
| TATCCACA | -0.0336 |
| CTATGGAC | -0.0339 |
| ACGTCTTG | -0.147 |
| ATTGCTGG | -0.0212 |
| AGTTTCCA | -0.00668 |
| AACATACA | -0.0748 |
| CGGCTTAA | 0.0628 |
